Assay results reported in publication PMC6919601, “Identification of Plasmodium dipeptidyl aminopeptidase allosteric inhibitors by high throughput screening” (PLoS ONE, 2019).
The campaign covered roughly 110,000 compounds. About 230 (0.21%) showed an effect of 50% or more. Some of the results follow.

These compounds were tested against DPAP1 (Plasmodium falciparum, UniProt Q8IIJ9) (assay: primary screen, percent inhibition; read by cleavage of a fluorogenic dipeptide substrate; higher = more effect of the substance).
Design: species or system P. falciparum D10 trophozoite lysates; single well
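Note: 30 min substrate incubation versus DMSO and 10 µM JCP410 controls.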

Chain of DPAP1 (Q8IIJ9 whole entry, looked up): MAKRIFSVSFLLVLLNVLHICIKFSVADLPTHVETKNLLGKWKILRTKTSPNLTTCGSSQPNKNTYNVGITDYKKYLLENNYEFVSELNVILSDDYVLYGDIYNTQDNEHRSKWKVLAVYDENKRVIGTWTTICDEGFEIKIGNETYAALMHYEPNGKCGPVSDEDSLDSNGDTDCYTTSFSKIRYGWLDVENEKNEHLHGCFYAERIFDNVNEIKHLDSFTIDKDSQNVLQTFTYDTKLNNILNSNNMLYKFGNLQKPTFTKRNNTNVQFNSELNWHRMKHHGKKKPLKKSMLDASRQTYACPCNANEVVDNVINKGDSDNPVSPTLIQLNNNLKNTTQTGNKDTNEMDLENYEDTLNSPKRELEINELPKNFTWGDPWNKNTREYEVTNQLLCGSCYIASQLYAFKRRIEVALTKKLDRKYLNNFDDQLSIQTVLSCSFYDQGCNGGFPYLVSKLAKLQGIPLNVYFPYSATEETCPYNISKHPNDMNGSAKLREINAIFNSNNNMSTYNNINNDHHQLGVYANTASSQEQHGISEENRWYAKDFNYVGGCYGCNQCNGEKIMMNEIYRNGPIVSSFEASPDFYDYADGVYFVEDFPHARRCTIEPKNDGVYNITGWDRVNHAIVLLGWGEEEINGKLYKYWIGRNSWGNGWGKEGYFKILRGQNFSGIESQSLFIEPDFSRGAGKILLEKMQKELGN

| Structure (SMILES) | % Inhibition @ 10 uM |
| --- | --- |
| CCOC(=O)c1sc(NC(=O)c2cc(=O)c3cc(Cl)ccc3o2)c(C(=O)OCC)c1C | 0.248% |
| N#Cc1cc2c(nc1SCC(=O)NCCc1ccccc1)CCCC2 | -3.63% |
| O=C(CN1Cc2ccccc2C1=O)NC1CCN(Cc2ccccc2)CC1 | -5.84% |
| CC(=O)NC(=O)c1nnn(-c2ccc(C)cc2)c1NC(C)=O | 3.61% |
| CC(=O)N1CCN(c2ccc(NC(=O)c3ccc(-c4ccccc4)cc3)cc2)CC1 | 5.12% |
| NS(=O)(=O)c1ccc(CC/N=c2/c(-c3ccccc3)c(O)c2=O)cc1 | 4.36% |
| N#CC1=C(N)Oc2c(ccc3ccccc23)C1c1ccc2ccccc2c1 (stereo not shown) | -2.21% |
| CC(C)S(=O)(=O)C1=NSC2=NC(=O)/C(=C\c3ccc(OCC(=O)O)cc3)C(=N)N21 | -5.51% |
| COc1ccc(N2CCN(CCC3=C(C)CCCC3(C)C)CC2)cc1 | -0.0648% |
| COc1ccccc1CCNCc1cccn1-c1nnc(N2CCN(C3CCCCC3)CC2)s1 | 1.56% |
| Cc1ccc2c(c1)c(/C=C1/C(=N)N3C=CSC3=NC1=O)c(C)n2Cc1ccc(F)cc1 | -1.82% |
| Cn1c2ccccc2c2cnn(CC(=O)N3CCN(C(=O)c4ccco4)CC3)c(=O)c21 | -5.49% |
| COc1ccc(S(=O)(=O)N2CC=C(C(=O)NCc3ccccc3OC)CC2)cc1 | 5.09% |
| CN(C)CC/N=c1/c(-c2ccccc2)c(O)c1=O | -0.539% |
| NC(=O)c1c(NC(=O)c2ccc(OCc3ccccc3)cc2)sc2c1CCC2 | 0.755% |
| O=C(C1CCN(S(=O)(=O)N2CCC3(CC2)OCCO3)CC1)N1CCc2ccccc2C1 | 2.18% |
| Cc1cn(CCC(=O)O)c(=O)[nH]c1=O | 0.221% |
| COc1ccc(-c2cc3ncc(C(C)=O)c(C)n3n2)cc1 | 1.52% |
| COc1ccc(C(=O)Nc2ccc(-c3csc(C)n3)cc2)cc1 | 5.6% |
| Cc1ccc(S(=O)(=O)N(CC(=O)N2CCCCCC2)Cc2ccccc2F)cc1 | 3.65% |
| CCOC(=O)c1cc(C)n(Cc2ccccc2)c1C | -5.37% |
| C=CCOc1ccc(/C=C2\SC(=O)N(CC(=O)Nc3ccc(C)cc3)C2=O)cc1 | -5.4% |
| CC1CCN(C(=O)c2cc3nc(-c4ccco4)cc(C(F)(F)F)n3n2)C(C)C1 (stereo not shown) | -3.53% |
| OCc1nc2ccccc2n1CCCCOc1ccccc1 | -10.7% |
| Cc1cccc(CCNC(=O)CCNC(=O)Cn2ccc3ccccc3c2=O)c1 | -0.631% |

| Structure (SMILES) | % Inhibition @ 10 uM |
| --- | --- |
| Cc1ccc(-c2nc(C#N)c(NCCCN3CCOCC3)o2)cc1 | -7.04% |
| CC(=O)Nc1ccc(NC(=O)COc2ccc(C)cc2C)cc1 | 0.795% |
| COCCCNC(=O)Cn1cnc2c1c(=O)n(C)c(=O)n2C | -0.564% |
| CCCNc1ncnc2c1cnn2-c1cccc(C)c1 | 6.29% |
| Cc1ccccc1C(=O)Nc1nc(-c2nnn(-c3ccc(Cl)cc3)c2C)ns1 | -0.858% |
| c1ccc2sc(SCCCCSc3nc4ccccc4s3)nc2c1 | -3.55% |
| CCCC(=O)NC(C)c1nc2ccccc2n1Cc1ccc(Cl)cc1 (stereo not shown) | 1.12% |
| CN1CCC(N2CCC(Cc3ccccc3)CC2)CC1 | -1.96% |
| CCCOc1ccc(C(=O)C2=C(O)C(=O)N(CCN3CCOCC3)C2c2ccc(OC)cc2)cc1C (stereo not shown) | 3.15% |
| COc1ccc(CN2CCN(C3CCCC3)CC2)c(OC)c1 | -2.18% |
| COc1ccc(Cl)cc1-c1nnc(S)n1-c1ccccc1 | -1.24% |
| O=C(c1ccccc1)N1CCN(CC(O)Cn2ccc3ccccc32)CC1 (stereo not shown) | -11.5% |
| O=C(C1CCCN(Cc2cccnc2)C1)N1CCCCCC1 (stereo not shown) | 5.44% |
| COc1cccc(N(CC(=O)NC2CC3CCC2C3)S(=O)(=O)c2ccc(C)cc2)c1 (stereo not shown) | -6.94% |
| CC(=O)N1CCC2(CC1)CC(=O)c1cc(OCC(=O)NCc3ccco3)ccc1O2 | -0.601% |
| Cc1cc(Cl)nc(Cl)c1C(=O)N1CCCCC1 | 1.03% |
| Cc1ccc2[nH]c3c(c2c1)CCCC3N (stereo not shown) | 5% |
| Cc1c(NC(=O)Cn2nc(C(F)(F)F)cc2C2CC2)cnn1C | 0.709% |
| O=C(NCc1ccco1)C1(c2ccccc2)CCOCC1 | -4.43% |
| CCOC(=O)C1=CC(=C2C(=O)NC(=O)NC2=O)c2ccccc2O1 | 2.03% |
| Fc1ccc(N2N=C(c3ccc(Cl)cc3)CC2c2cccs2)c(F)c1 (stereo not shown) | -4.4% |
| O=C(c1ccc(-c2ccccc2)cc1)N1N=C(C(F)F)CC1(O)C(F)F (stereo not shown) | 1.34% |
| CCCC[C@H](NC(=O)[C@H](CS(=O)(=O)Cc1ccccc1OC(F)F)NC(=O)N1CCOCC1)C(=O)c1nc2ncccc2o1 | -5.2% |
| COc1cc(C2NCCc3c2[nH]c2ccccc32)cc(OC)c1O (stereo not shown) | 4.89% |
| CN(C)CCN(C(=O)c1ccccc1Br)c1nc2c(Cl)cccc2s1 | -4.16% |

| Structure (SMILES) | % Inhibition @ 10 uM |
| --- | --- |
| COCCN1C(=O)c2oc3cc(C)c(C)cc3c(=O)c2C1c1ccc(O)cc1 (stereo not shown) | -2.91% |
| Cc1ccccc1-n1nc2c(c1NC(=O)C(C)C)CS(=O)(=O)C2 | -0.195% |
| CCn1c2ccccc2c2nnc(SCc3ccccc3Cl)nc21 | 2.91% |
| COc1ccccc1-n1c(C)ccc1C | -0.183% |
| CCN1CCN(c2c(S(=O)(=O)c3ccc(C)c(C)c3)cnc3ccccc23)CC1 | -6.24% |
| C=Cc1ccc(Cn2c(C)c(CNCc3ccc(OC)cc3)c(C(=O)O)c2C)cc1 | 4.53% |
| O=C(Nc1sc2c(c1C(=O)O)CCC2)c1ccc(F)cc1 | 3.9% |
| Cc1nc2ncnn2c(O)c1NS(=O)(=O)c1ccc(F)cc1 | -5.29% |
| O=C(Cn1ccc2ccccc2c1=O)NCCC(=O)NC1CCN(Cc2ccccc2)CC1 | 5.12% |
| COc1cc2c(cc1OC)C(c1cccc(Cl)c1Cl)NC(=O)C2 (stereo not shown) | 6.66% |
| COc1ccccc1NC(=O)C(C)c1cccc(C(=O)c2ccccc2)c1 (stereo not shown) | 0.331% |
| CC(=O)Nc1nonc1-c1nc2ccccc2n1Cc1ccccc1Cl | 0.661% |
| COC(=O)c1ccc(CN(CCN(C)C)Cc2ccccc2)cc1 | -3.8% |
| N#CC1=C(N)Oc2[nH]nc(-c3ccc(Cl)c(Cl)c3)c2C1c1ccc2c(c1)OCO2 (stereo not shown) | 7.01% |
| O=C(COc1ccccc1)Nc1cc(C(F)(F)F)cc(C(F)(F)F)c1 | -6.64% |
| CCOc1cccc(C(=O)Nc2nonc2-c2ccc(OCC)c(OCC)c2)c1 | -3.24% |
| CCCSc1ncc(Cl)c(C(=O)Nc2nc3ccc(S(C)(=O)=O)cc3s2)n1 | 1.25% |
| CCOC(=O)c1ccc(NC=C2C(=O)NC(=S)NC2=O)cc1 | -3.48% |
| COc1ccccc1OCCNC(=O)c1cccc2ccccc12 | 14.4% |
| Cc1c(N)ccc(-n2nc3ccccc3n2)c1C | -3.49% |
| Cc1ccc(-c2noc(-c3ccccc3C)n2)cc1 | -1.47% |
| Cc1ccc(C)c(-c2csc(Nc3ccc(Br)cc3)n2)c1 | -2.28% |
| COc1cc(/C=C2\SC(Nc3ccc(Br)cc3)=NC2=O)cc(OC)c1O | 11.7% |
| O=C(NCCO)c1cc2ccccc2c(=O)s1 | -5.51% |
| Cc1ccc2c(CNCCc3cccs3)c(C(=O)O)n(Cc3ccc(F)cc3)c2c1 | -2.39% |

| Structure (SMILES) | % Inhibition @ 10 uM |
| --- | --- |
| CCC(=O)N1c2ccccc2N=C2CC(C)(C)CC(O)=C2C1c1cccnc1 (stereo not shown) | -8.36% |
| CCC1C(=O)N=C(SCC(=O)Nc2nc(-c3ccccc3)cs2)NC1=O (stereo not shown) | -4.24% |
| COc1ccc(N2C(=O)C(O)=C(C(=O)c3ccc(C)cc3)C2c2cc(OC)ccc2OC)cc1 (stereo not shown) | 5.12% |
| Clc1ccc(OCCCCOc2ccc(Cl)cc2)cc1 | 1.35% |
| CCOCCCNS(=O)(=O)c1c(C)nc2sccn2c1=O | -3.74% |
| CCOc1ccc(C2c3c(-c4ccccc4O)n[nH]c3C(=O)N2Cc2cccnc2)cc1 (stereo not shown) | 3.27% |
| COCCCN1C(=O)C(O)=C(C(=O)c2cccs2)C1c1ccc(F)cc1 (stereo not shown) | 0.163% |
| CC(O)C(=O)NCCOCCOCCNC(=O)C(C)O (stereo not shown) | 5.44% |
| CC(c1ccccc1)n1cncc1C(=O)O (stereo not shown) | 2.22% |
| COc1cc(N(C)C)c(NC(C)=O)cc1C(=O)O | -3.16% |
| CC(c1c(N)n(C)c(=O)n(C)c1=O)c1c(N)n(C)c(=O)n(C)c1=O | 4.03% |
| Clc1ccccc1N1CCN(Cc2ccccc2Br)CC1 | -1.92% |
| Cc1cc(NC(=O)c2cc(-c3ccccc3F)no2)no1 | -1.78% |
| Cc1ccsc1CCNC(=O)CCc1nnc2ccc(N3CCC(C)CC3)nn12 | -5.54% |
| Cc1ccc(NCc2ccncc2)cc1 | -2.15% |
| Nc1cccc(C(=O)Nc2cccc(Cl)c2)c1 | 3.81% |
| COc1ccc(C2C(C(=O)NCc3cccnc3)c3cc(OC)c(OC)cc3C(=O)N2C)cc1 (stereo not shown) | -1.2% |
| CCC(C)C(=O)Nc1ccc(C(C)=O)cc1 (stereo not shown) | -1.38% |
| COCC(C)NC1CCN(C(C)=O)CC1 (stereo not shown) | 0.0657% |
| CC(Sc1nc(-c2ccccc2)cc(C(F)(F)F)n1)C(=O)NCc1ccco1 (stereo not shown) | 5.65% |
| O=C(Cc1ccccc1F)Nc1nc2ccccc2s1 | 1.64% |
| CCOc1cccc2sc(N(CCN(C)C)C(=O)c3ccc(C(C)=O)cc3)nc12 | -9.48% |
| COc1ccc(C(=O)/N=C(/NC(=O)c2ccc(OC)cc2)Nc2nc3ccccc3s2)cc1 | 0.146% |
| COc1ccc(-c2nc(N3CCC(C)CC3)nc3nn4c(C)cc(C)nc4c23)cc1 | 4.02% |
| Cc1[nH]c(SCC(=O)Nc2nc3c(s2)CCCC3)nc1Cc1ccc(O)cc1 | 4.24% |
